# Measured values published in the supplement of paper PMC8007513.
# Structures can show the parent of a compound that is named as a salt. ± gives the standard error. Hit rate of the full screen: of about 1,300 compounds, about 130 (10%) showed an effect of 50% or more. The list shows a part of the results, in another mix than the full data.
# Test system: Trichoderma virens ATCC 9645
# Test: growth yield (OD600) with compound + IPBC relative to untreated control; higher = less growth inhibition
# Conditions: compound concentration: 100 uM, IPBC concentration: 200 ng/ml
# How it was run: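 Plates were read for OD600 at 40 h and 72 h after Trichoderma virens ATCC 9645 spores (15,000 spores ml^−1 in potato dextrose broth) were grown at 30 °C with library compounds at 100 μM final, with or without a biocide at 200 ng ml^−1. Growth is stated relative to the control with neither agent, as the mean of duplicate screens.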
SMILES,growth yield (40 h),growth yield (72 h)
O=C(O)Cc1ccccc1Nc1c(Cl)cccc1Cl [Diclofenac sodium] + CCCCNC(=O)OCC#CI [3-iodo-2-propynyl butylcarbamate (IPBC)],44.79 ± 0.32%,–
CN1CCN(CCCN2c3ccccc3Sc3ccc(S(=O)(=O)N(C)C)cc32)CC1 [Thioproperazine dimesylate] + CCCCNC(=O)OCC#CI [3-iodo-2-propynyl butylcarbamate (IPBC)],37.8 ± 0.95%,–
CC(=O)Oc1cc(C(F)(F)F)ccc1C(=O)O [Triflusal] + CCCCNC(=O)OCC#CI [3-iodo-2-propynyl butylcarbamate (IPBC)],72.9 ± 2.4%,87 ± 2.1%
CCN(C(C)=O)c1cccc(-c2ccnc3c(C#N)cnn23)c1 [Zaleplon] + CCCCNC(=O)OCC#CI [3-iodo-2-propynyl butylcarbamate (IPBC)],81.009 ± 1e-14%,88.94 ± 0.42%
NCCc1c[nH]c2ccc(O)cc12 [Serotonin hydrochloride] + CCCCNC(=O)OCC#CI [3-iodo-2-propynyl butylcarbamate (IPBC)],100 ± 8.1%,100 ± 3.6%
O=c1[nH]cc(F)c(=O)[nH]1 [5-fluorouracil] + CCCCNC(=O)OCC#CI [3-iodo-2-propynyl butylcarbamate (IPBC)],36.9%,–
CS(=O)(=O)c1ccc([C@@H](O)[C@@H](CO)NC(=O)C(Cl)Cl)cc1 [Thiamphenicol] + CCCCNC(=O)OCC#CI [3-iodo-2-propynyl butylcarbamate (IPBC)],89.11 ± 0.16%,93.03 ± 0.52%
CCC(COC(=O)c1cc(OC)c(OC)c(OC)c1)(c1ccccc1)N(C)C (stereo not drawn) [Trimebutine] + CCCCNC(=O)OCC#CI [3-iodo-2-propynyl butylcarbamate (IPBC)],84 ± 4%,87.3 ± 2.3%
O=C1C(CC[S+]([O-])c2ccccc2)C(=O)N(c2ccccc2)N1c1ccccc1 (stereo not drawn) [Sulfinpyrazone] + CCCCNC(=O)OCC#CI [3-iodo-2-propynyl butylcarbamate (IPBC)],106 ± 9.2%,105 ± 2.4%
CC(=O)O[C@]1(C(C)=O)CC[C@H]2[C@@H]3C=C(C)C4=CC(=O)CC[C@@H]4[C@H]3CC[C@@]21C [Nomegestrol acetate] + CCCCNC(=O)OCC#CI [3-iodo-2-propynyl butylcarbamate (IPBC)],75.77 ± 0.48%,88.1 ± 5.5%
C#C[C@]1(O)CC[C@H]2[C@@H]3CCC4=CC(=O)CC[C@@H]4[C@H]3CC[C@@]21C [Norethindrone] + CCCCNC(=O)OCC#CI [3-iodo-2-propynyl butylcarbamate (IPBC)],55.1 ± 1.4%,83.06 ± 0.63%
Nc1ccc(S(=O)(=O)Nc2ncccn2)cc1 [Sulfadiazine] + CCCCNC(=O)OCC#CI [3-iodo-2-propynyl butylcarbamate (IPBC)],85.5 ± 2.5%,92.7 ± 4.2%
CCN(CC)CCOC(=O)C1(c2ccc([N+](=O)[O-])cc2)CCCC1 [Nitrocaramiphen hydrochloride] + CCCCNC(=O)OCC#CI [3-iodo-2-propynyl butylcarbamate (IPBC)],94.4 ± 11%,101 ± 5.1%
Clc1ccccc1CN1CCc2sccc2C1 [Ticlopidine hydrochloride] + CCCCNC(=O)OCC#CI [3-iodo-2-propynyl butylcarbamate (IPBC)],87.5 ± 2.4%,92.7 ± 2.5%
Nc1ccc(O)c(C(=O)O)c1 [Mesalamine] + CCCCNC(=O)OCC#CI [3-iodo-2-propynyl butylcarbamate (IPBC)],86.4%,89.14 ± 0.84%
Cc1cc(NC(=O)C2=C(O)c3ccccc3S(=O)(=O)N2C)no1 [Isoxicam] + CCCCNC(=O)OCC#CI [3-iodo-2-propynyl butylcarbamate (IPBC)],72.6 ± 3%,86.7 ± 1.4%
Cc1cc(C(C)(C)CC(C)(C)C)ccc1OCCOCC[N+](C)(C)Cc1ccccc1 [Methyl benzethonium chloride] + CCCCNC(=O)OCC#CI [3-iodo-2-propynyl butylcarbamate (IPBC)],2.86 ± 0.64%,2.62 ± 0.1%
CO[C@@]1(NC(=O)C2SC(=C(C(N)=O)C(=O)O)S2)C(=O)N2C(C(=O)O)=C(CSc3nnnn3C)CS[C@@H]21 (stereo partly drawn) [Cefotetan] + CCCCNC(=O)OCC#CI [3-iodo-2-propynyl butylcarbamate (IPBC)],94.8 ± 2.4%,96.5 ± 1.9%
COC(=O)C1=C(C)NC(C)=C(C(=O)OC)C1c1ccccc1[N+](=O)[O-] [Nifedipine] + CCCCNC(=O)OCC#CI [3-iodo-2-propynyl butylcarbamate (IPBC)],42.41 ± 0.16%,–
Cc1scc2c1N(C(=O)CN1CCN(C)CC1)c1ccccc1NC2=O [Telenzepine dihydrochloride] + CCCCNC(=O)OCC#CI [3-iodo-2-propynyl butylcarbamate (IPBC)],91.2 ± 15%,98.7 ± 11%
Cn1c(=O)c2nc[nH]c2n(C)c1=O [Theophylline monohydrate] + CCCCNC(=O)OCC#CI [3-iodo-2-propynyl butylcarbamate (IPBC)],101 ± 4.5%,99.3 ± 2.2%
c1ccc(C2CN3CCSC3=N2)cc1 (stereo not drawn) [Tetramisole hydrochloride] + CCCCNC(=O)OCC#CI [3-iodo-2-propynyl butylcarbamate (IPBC)],87.8 ± 9.1%,93.1 ± 4.8%
COc1ccc(Cc2nccc3cc(OC)c(OC)cc23)cc1OC [Papaverine hydrochloride] + CCCCNC(=O)OCC#CI [3-iodo-2-propynyl butylcarbamate (IPBC)],80.8 ± 1.1%,89.2 ± 1.6%
CCOC(=O)c1ccc(OC(=O)CCCCCNC(=N)N)cc1 [Gabexate mesilate] + CCCCNC(=O)OCC#CI [3-iodo-2-propynyl butylcarbamate (IPBC)],51.3 ± 3%,67.6 ± 1.4%
CCCN[C@H]1CCc2nc(N)sc2C1 [Pramipexole dihydrochloride] + CCCCNC(=O)OCC#CI [3-iodo-2-propynyl butylcarbamate (IPBC)],116 ± 5.1%,111 ± 3.4%
Cc1cc(=O)oc2cc(O)ccc12 [Hymecromone] + CCCCNC(=O)OCC#CI [3-iodo-2-propynyl butylcarbamate (IPBC)],91.7 ± 3%,92.5 ± 3.8%
